Experimental data: the antibiotic and cytotoxicity screens of Wong et al. (2023)
Some of the results follow.

Each molecule was assayed on S. aureus RN4220 (assay: growth inhibition call (relative growth <= 0.2)). Settings: 50 µM.

Growth inhibition call, inactive:
O=C(C1=C[C@H](c2ccc(C(F)(F)F)cc2)C[C@H](OCc2ccc(CO)cc2)O1)N1CCN(Cc2ccccc2)CC1
CC(C)NC(=O)Nc1ccc2c(c1)C(=O)N([C@H](C)CO)C[C@@H](C)[C@@H](CN(C)CC1CCCCC1)OCCCC[C@@H](C)O2
C[C@@H]1CN([C@@H](C)CO)C(=O)c2cc(Br)cnc2O[C@@H]1CN(C)Cc1ccc(C(=O)O)cc1
COCC#Cc1ccc2c(c1)O[C@@H](CN(C)Cc1ccc3c(c1)OCO3)[C@H](C)CN([C@H](C)CO)S2(=O)=O
COCC#Cc1ccc2c(c1)O[C@H](CN(C)C(=O)C1CCOCC1)[C@@H](C)CN([C@H](C)CO)S2(=O)=O
COCCNC(=O)C[C@H]1C[C@@H]2c3cc(NS(C)(=O)=O)ccc3O[C@@H]2[C@H](CO)O1
C[C@@H]1CCCCO[C@@H](CN(C)Cc2ccc(C(F)(F)F)cc2)[C@@H](C)CN([C@@H](C)CO)C(=O)c2cc(NS(=O)(=O)c3ccc(F)cc3)ccc2O1
Cc1ccc(S(=O)(=O)Nc2ccc3c(c2)CC(=O)N([C@H](C)CO)C[C@@H](C)[C@@H](CN(C)Cc2ccc(-c4ccccc4)cc2)O3)cc1
O=C(O[C@H](Cc1ccc(O)c(O)c1)C(=O)O)[C@H]1[C@H](C(=O)O[C@@H](Cc2ccc(O)c(O)c2)C(=O)O)[C@H](c2ccc(O)c(O)c2)[C@@H]1c1ccc(O)c(O)c1
Cc1ccc(-c2nc(Nc3ccccc3F)sc2C)cc1
COc1cc(OC)cc(C(=O)OCCCNCCNCCCOC(=O)c2cc(OC)cc(OC)c2)c1
Cc1nc(N)sc1-c1ccnc(Nc2ccc(N3CCOCC3)cc2)n1
O=C(C[C@@H]1C[C@@H]2c3cc(NC(=O)Cc4ccncc4)ccc3O[C@@H]2[C@@H](CO)O1)NCc1ccc2c(c1)OCO2
C[C@H]1CCCCO[C@@H](CN(C)Cc2ccc(C(=O)O)cc2)[C@@H](C)CN([C@@H](C)CO)C(=O)c2cc(NS(=O)(=O)c3ccccc3)ccc2O1
COc1ccc(S(=O)(=O)Nc2ccc3c(c2)C(=O)N([C@@H](C)CO)C[C@H](C)[C@H](CN(C)C(=O)CCC(F)(F)F)OCCCC[C@@H](C)O3)cc1
Cc1noc(C)c1NC(=O)Nc1ccc2c(c1)C(=O)N([C@@H](C)CO)C[C@@H](C)[C@H](CN(C)C(=O)Nc1ccc(F)cc1)OCCCC[C@@H](C)O2
C[C@@H]1CCCCO[C@@H](CN(C)Cc2ccncc2)[C@@H](C)CN([C@@H](C)CO)C(=O)c2cc(NC(=O)Cc3ccccc3)ccc2O1
CC(=O)C1CCC2C3CCC4=CC(=O)CCC4(C)C3CCC12C (stereo not given)
NC(=O)CNC(=O)c1cccc(Cl)c1
CCN(CC)CCC/N=C1/N=C(CC(=O)/C=C/c2ccc(O)c(OC)c2)C[C@@H](c2ccc(O)c(OC)c2)S1
O=C(C[C@@H]1CC[C@H]2[C@@H](COC[C@H](O)CN2S(=O)(=O)c2ccc(Cl)cc2)O1)NCCN1CCCCC1
C[C@@H]1CCCCO[C@H](CN(C)C(=O)NC2CCCCC2)[C@@H](C)CN([C@H](C)CO)C(=O)c2cc(NC(=O)Cc3ccccc3)ccc2O1
C[C@H]1CN([C@@H](C)CO)C(=O)c2cc(C#Cc3cccc(F)c3)cnc2O[C@H]1CN(C)C(=O)C1CCOCC1
C[C@@H]1CN([C@@H](C)CO)C(=O)c2cc(NC(=O)Nc3ccccc3)ccc2O[C@@H](C)CCCCO[C@@H]1CN(C)C(=O)CCC(F)(F)F
Cc1ccc(S(=O)(=O)Nc2ccc3c(c2)C(=O)N([C@H](C)CO)C[C@@H](C)[C@H](CN(C)C(=O)Nc2ccc(C(F)(F)F)cc2)O3)cc1
C[C@H]1CN([C@@H](C)CO)C(=O)Cc2cc(NC(=O)Nc3cccc4ccccc34)ccc2O[C@H]1CN(C)Cc1ccc(C(=O)Nc2ccccc2N)cc1
COCCOC(=O)N1C(=O)[C@@]2(c3cc(C#Cc4ccc(OC)cc4)ccc31)[C@H](C(=O)N1CCc3cc(OC)c(OC)cc3C1)[C@H]1C(=O)O[C@H](c3ccccc3)[C@H](c3ccccc3)N1[C@@H]2c1ccc(O)cc1
C[C@H](CO)N1C[C@H](C)[C@@H](CN(C)C(=O)NC2CCCCC2)Oc2c(NC(=O)C3CCOCC3)cccc2C1=O
O=C1NCCN1c1cccnc1
C[C@H]1CCCCO[C@H](CN(C)Cc2ccc3c(c2)OCO3)[C@@H](C)CN([C@@H](C)CO)C(=O)c2cc(NC(=O)C3CCCCC3)ccc2O1
C[C@H](CO)N1C[C@H](C)[C@@H](CN(C)S(C)(=O)=O)Oc2ccc(NS(=O)(=O)c3ccc(Cl)cc3)cc2CC1=O
C[C@H]1CN([C@@H](C)CO)S(=O)(=O)c2ccc(C#CC(C)(C)O)cc2O[C@H]1CN(C)C(=O)C1CCCCC1
CS(=O)(=O)NC[C@@H]1OC[C@@H]2CCN(C(=O)c3ccnnc3)C[C@@H]21
COc1ccc(NC(=O)Nc2ccc3c(c2)[C@@H]2C[C@H](CC(=O)NCc4ccc(-c5ccccc5)cc4)O[C@@H](CO)[C@@H]2O3)cc1
CC(C)NC(=O)N(C)C[C@@H]1OCCCC[C@H](C)Oc2ccc(NS(C)(=O)=O)cc2C(=O)N([C@@H](C)CO)C[C@H]1C
C[C@@H]1CCCCO[C@@H](CN(C)C(=O)Nc2ccccc2)[C@@H](C)CN([C@@H](C)CO)C(=O)c2cc(NS(=O)(=O)c3ccc(F)cc3)ccc2O1
COc1ccc(-c2ccccn2)cc1
CC(=O)N1CCc2c(sc(NC(=O)CN3C(=O)CCC3=O)c2C(N)=O)C1
C[C@H](CO)N1C[C@H](C)[C@@H](CN(C)C(=O)Nc2cccc3ccccc23)OCCCC[C@H](C)Oc2ccc(NS(=O)(=O)c3ccc(Cl)cc3)cc2C1=O
C[C@@H]1CN([C@@H](C)CO)C(=O)c2cccc(NC(=O)C3CCCCC3)c2O[C@@H]1CN(C)Cc1ccc(C(=O)Nc2ccccc2N)cc1
